Several values for one entry are separate records, joined by “and”; a condition that tells them apart may be missing. Identical values can stand only once. In all, about 48,000 compounds went through this assay and about 1,200 (2.5%) were called active. Inconclusive results (about 2%) are left out.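 The calls were made as follows: active = activation of at least 60% and not above a set upper limit (about 1 call in 100 departs from these limits); inconclusive = activation of 40% to 60%, or above that upper limit; inactive = activation under 40%.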 The list shows a part of the results.

Chain of UniProt O75388 (O75388 whole entry, looked up, the tested form may be a part): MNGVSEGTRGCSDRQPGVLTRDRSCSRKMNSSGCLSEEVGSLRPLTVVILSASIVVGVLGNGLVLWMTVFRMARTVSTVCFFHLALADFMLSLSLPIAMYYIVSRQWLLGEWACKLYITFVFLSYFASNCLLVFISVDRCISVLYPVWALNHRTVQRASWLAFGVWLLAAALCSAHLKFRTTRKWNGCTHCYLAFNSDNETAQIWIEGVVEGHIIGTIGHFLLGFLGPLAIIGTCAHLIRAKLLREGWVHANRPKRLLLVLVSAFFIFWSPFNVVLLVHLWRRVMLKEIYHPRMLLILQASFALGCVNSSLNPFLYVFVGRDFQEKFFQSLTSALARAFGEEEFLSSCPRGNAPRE

The target of the assay is Probable G-protein coupled receptor 32 (Homo sapiens) (UniProt O75388). The assay can be described thus: qHTS for Agonists of Human Resolvin D1 Receptor DRV1. Also: 0% is about no effect. As to conditions: CHO-K1 GPR32 beta-arrestin PathHunter luminescence, 90 min; at 76.9 µM; stronger effect = higher value; zero percent set by DMSO-only wells. The method in brief:
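Agonism was scored as beta-arrestin recruitment to ProLink-fused GPR32 in stably transfected CHO-K1 cells, giving a chemiluminescent beta-Gal signal; compounds were incubated 90 min at 37 °C.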
On to `Cc1ccc(C)c(N2CCN(c3nc4c(S(=O)(=O)c5ccccc5)nnn4c4ccc(Cl)cc34)CC2)c1`, for which the activation is inactive: -1.01%.
Take `CCOc1ccc2c(c1)c(=O)c(C(=O)c1ccc(CC)cc1)cn2CC(=O)Nc1ccccc1C`: the activation is inactive: 30%.
As for `Cc1ccc(CCNC(=O)c2ccc(NC(=O)N3CCSc4ccccc43)cc2)cc1`, the figure is inactive: -19.5%; as for `Cc1ccc(NC(=O)Cn2nnc(C(=O)NCCc3ccccc3)c2N)cc1Cl`, inactive: -7.27%; as for `COCC(=O)N1c2nc(-c3ccco3)nn2C2(CCCCC2)[C@@H]2CCCC[C@@H]21`, inactive: -13.9%.
As for `CCc1ccc2c(c1)c(=O)c(S(=O)(=O)c1ccccc1)cn2CC(=O)Nc1ccc(OC)cc1`, the figure is inactive: -15.4%.
On to `CCCN(C(=O)c1cc2c(=O)oc3ccccc3c2s1)c1ccccc1C`, for which the activation was inactive: -0.559%.
As for `CCC(C)NC(=O)Cn1c(=O)ccc2cc(S(=O)(=O)N3CCCC3)ccc21` (centres undefined), the figure is inactive: 17.7%; as for `CCOC(=O)c1c(S(=O)(=O)N2CCC(C(=O)Nc3cccc(C)n3)CC2)c(C)n(C)c1C`, inactive: 3.83%.
As for `COc1ccc(NC(=O)CN2C(=O)C3(SCC(=O)N3c3cccc(OC)c3)c3ccccc32)cc1` (centres undefined), the figure is inactive: -11.2%; as for `CCOc1cc(CNC(=O)c2ccc3nc(CCc4ccccc4)oc3c2)ccc1OC`, inactive: -7.02%; as for `O=C(CSc1nc2ccsc2c(=O)n1Cc1ccccc1Cl)NCc1ccc(Cl)cc1`, inactive: 16.3%.
The value for `O=C(CSc1nc2ccccc2n1Cc1c(F)cccc1Cl)N1CCN(c2ccc(F)cc2)CC1` was inactive: -6.01%; that for `Cc1ccc(CNC(=O)C(C)n2ccc3cc(S(=O)(=O)N4CCCC4)ccc32)cc1` (centres undefined) was inactive: -4.29%; that for `Cc1ccc(S(=O)(=O)NCCc2csc3nc(-c4ccccc4C)nn23)cc1` was active: 79.7%.
Take `O=C(c1ccc2c(Cl)c3c(nc2c1)CCCC3)N1CCN(c2ccccc2F)CC1`: the activation is inactive: -10.1%.
The value for `O=C(Nc1nnc(SCc2cc(=O)n3cc(Cl)ccc3n2)s1)c1cccc(F)c1` was inactive: -2.5%; that for `CC(C)(C)[C@]1(O)CCN2C[C@H]3c4ccccc4CCc4cccc(c43)[C@@H]2C1` was inactive: -25.6% and inactive: -25%.
The value for `CCOc1ccc(N2CC(c3nc4ccccc4n3CCOc3ccc(CC)cc3)CC2=O)cc1` (centres undefined) was inactive: 5.31%; that for `COc1cccc(C2=CC(c3ccccc3F)n3c(nc4ccccc43)N2)c1` (centres undefined) was inactive: -26.6%; that for `COc1ccc(N2CC(NC(=O)c3c(F)cccc3Cl)CC2=O)cc1OC` (centres undefined) was inactive: 1.04%.
The value for `Nc1nc2[nH]c(=O)cnc2c(=O)[nH]1` was inactive: -11.1%; that for `Cc1ccccc1NC(=O)c1cnc2sc(N3CCCC3)nn2c1=O` was inactive: 2.69%; that for `CCC(C(=O)N1CCN(c2ccccc2)CC1)n1nc(C)c2sc3ccccc3c2c1=O` (centres undefined) was inactive: -15.7%.
For `CC1Cc2ccccc2N1NC(=O)c1ccc(Cl)c(S(N)(=O)=O)c1` (centres undefined), the activation was inactive: -0.0065%.
The value for `Cc1nc2ccccc2n1CCc1nc2c3ccccc3nc(SCc3ccc(F)cc3)n2n1` was inactive: 5.74%; that for `CCCCN(C)C(=O)Cn1c(SCC(=O)Nc2ccc(C)c(C)c2)nc2ccccc21` was inactive: 10.3%; that for `CCOC(=O)C1(C)C=C(Nc2ccc(C(=O)O)cc2)C(=O)N1c1ccc(C(=O)O)cc1` (centres undefined) was inactive: -4.81%.
The value for `COc1ccc2c(c1)c1c(c(=O)n(-c3ccccc3C)c(=O)n1Cc1c(F)cccc1Cl)n2C` was inactive: -2.38%.
As for `Cc1cccc(Nc2c3c(nc4nncn24)CCC3)c1C`, the figure is inactive: -0.944%; as for `COc1ccccc1N1CCN(CC(O)COc2ccc(C)cc2C(C)(C)C)CC1` (centres undefined), inactive: 6.03%.
In the case of `CCOC(=O)c1c(C)oc2nc(C)nc(NCC3CCN(Cc4cccc(Cl)c4)CC3)c12`, the activation is inactive: 2.72%.
Take `CCOC(=O)C1CCCN(C(=O)Cn2nc(CC)n3c(cc4occc43)c2=O)C1` (centres undefined): the activation is inactive: 6.98%.
Take `Cc1cccc(NC(=O)C2CCCN(c3nc4ccccc4s3)C2)c1C` (centres undefined): the activation was inactive: -3.47%.
As for `Cc1ccc(C)c(N2CCN(CCCNC(=O)Nc3ccc(Cl)cc3)CC2)c1`, the activation was inactive: 37.2%.
The value for `Cc1ccc(NC(=O)CCNS(=O)(=O)c2ccc3c(c2)CCCC(=O)N3)cc1` was inactive: 1.1%.
The value for `COc1cccc2cc(-c3nc(-c4ccc(C)cc4)c(C)s3)c(=O)oc12` was inactive: -9.41%.
The value for `Cc1ccc(C(=O)Nc2ccc3nc(N4CCCCC4)cc(C)c3c2)cc1F` was inactive: 30%; that for `CCOc1ccccc1NC(=O)CN1C=NS(=O)(=O)c2ccccc21` was inactive: 4.8%; that for `Cc1ccc(CCNC(=O)c2ccc(CS(=O)(=O)Cc3ccccc3F)o2)cc1` was inactive: 47.9%.
For `O=S(=O)(Nc1ccc(Cl)cc1)c1cccc(S(=O)(=O)c2ccc(Cl)c(Cl)c2)c1`, the activation is inactive: 48.9%.
The value for `Cc1cc(Nc2ccc(F)cc2)nc(-n2nc(C)cc2C)n1` was inactive: -17%; that for `CC(=O)c1ccc(N2C(=O)N(Cc3cc(C)ccc3C)c3ccccc3S2(=O)=O)cc1` was inactive: -11.2%; that for `CCOc1ccccc1NC(=O)c1c(NC(=O)C(C)Oc2ccc(Cl)cc2)sc2c1CCCCC2` (centres undefined) was inactive: -9.01%.
Take `Cc1ccc(NS(=O)(=O)c2ccc3c(c2)CC(C)N3C(=O)C2CCC2)cc1Cl` (centres undefined): the activation is inactive: -6.92%.
As for `COc1cc(Cl)c(C)cc1NC(=O)c1cc2c(Cl)nc3ccc(C)cc3c2s1`, the figure is inactive: -5.28%.
Take `Cc1cccc(-c2nc3c(c(SCc4ccccc4Cl)n2)Cc2c(CO)cnc(C)c2O3)c1`: the activation was inactive: 8.93%.
The value for `CC(C)CCn1c(=O)c2sccc2n2c(CCCC(=O)NC(C)C)nnc12` was inactive: -6.48%; that for `COc1ccc(-c2nc3cc(C)ccn3c2NC(=O)c2ccc(C)c(C)c2)cc1` was inactive: -8.53%; that for `CC(C)CC1N=C2c3ccccc3N=C(SCC(=O)NCCc3ccc(Cl)cc3)N2C1=O` (centres undefined) was inactive: 3.9%.
As to `CNC(=O)CN1C(=O)c2cccnc2Sc2ccccc21`, the activation is inactive: -4.1%.
Turning to `CCNC(=O)c1cnc2c(-c3ccccc3)c(C)nn2c1C`, the activation was inactive: -1.71%.
As for `COc1ccc(-n2c(=O)c3c4c(sc3n(Cc3ccccc3Cl)c2=O)CCC4)c(OC)c1`, the figure is inactive: 22.3%; as for `Cc1cccc(OCC(=O)Nc2ccccc2OCc2cc(=O)n3ccccc3n2)c1`, inactive: -10.4%.
The value for `COc1cccc(CNC(=O)CN(C)S(=O)(=O)c2ccc3[nH]c4c(c3c2)CCCC4)c1` was inactive: 43.1%.
The value for `COc1cccc(-c2cc(C(F)(F)F)nc(NCCc3ccccc3)n2)c1` was inactive: -35.6%; that for `Cc1cccc(C)c1-n1ncc(C(=O)Nc2ccc3c(c2)OCO3)c1C1CCN(C(=O)OC(C)(C)C)CC1` was inactive: -22.5%.
For the compound `Cc1ccc(CN2CCc3nc(N4CCN(c5ccccc5F)CC4)ncc3C2)cc1C`, the activation was inactive: -9.63%.
As for `CCOc1ccccc1CNC(=O)C1CCCN(c2ncnc3onc(-c4ccc(F)cc4)c23)C1` (centres undefined), the activation was inactive: -10.1%.
The value for `CCCCOc1ccc(CN2C(=O)C(=O)c3cc(Br)cc(C)c32)cc1OC` was inactive: -26%; that for `O=C(NCc1ccccc1Cl)C1CCCN(C(=O)c2cnn(-c3ccccc3)c2-n2cccc2)C1` (centres undefined) was inactive: -15.9%.
The value for `O=C(O)Cn1c(=O)n(Cc2ccc(Br)cc2F)c(=O)c2ccc(Cl)cc21` was inactive: -22.7%.
`COc1ccccc1CCNC(=O)c1ccc2c(c1)c(C)c(C)n2Cc1ccc(Cl)cc1`: the activation was inactive: -17.6%.
The value for `Cc1ccc2c(c1)-c1nc(-c3ccc4c(c3)NC(=O)CO4)cc(-c3ccc(F)cc3)c1CO2` was inactive: -0.435%.
The value for `O=C(CSc1nnc(-c2ccc(O)cc2)o1)c1ccc(Br)cc1` was inactive: 30.9%; that for `COc1ccccc1C(=O)Nc1c(C(=O)N(C)Cc2ccccc2)sc2nc(C)c(Cl)c(C)c12` was inactive: -27.6%.
As for `CCCC(CCC)C(=O)Nc1cc(-c2cn3cccnc3n2)ccc1OC`, the figure is inactive: -8.84%; as for `O=c1c(-c2ccc(Cl)cc2)c(C(F)(F)F)oc2c(CN3CCCCC3)c(O)ccc12`, inactive: -3.18%.
In the case of `CCc1ccc(N2C(=O)CSC23C(=O)N(Cc2ccc(C)cc2)c2ccccc23)cc1` (centres undefined), the activation is inactive: -12.9%.
`O=C(NCN1CCOCC1)c1cnccn1`: the activation is inactive: -7.89%.
The value for `Cc1ccccc1Nc1c(-c2ccc(Cl)s2)nc2cccc(C)n12` was active: 60.8%; that for `COc1ccc(Cn2cc(C(=O)c3ccc(C)cc3)c(=O)c3cc(OC)c(OC)cc32)cc1` was inactive: 25.4%.
As for `COc1ccc(S(=O)(=O)c2c(C)c(NS(=O)(=O)c3ccccc3)cc(C)c2O)cc1`, the figure is inactive: -1.7%; as for `O=C(CSc1nc2c(c(=O)[nH]1)CCC2)Nc1ccccc1C(F)(F)F`, inactive: 3.47%.
The value for `Cc1oc(-c2cccc(Cl)c2)nc1CN1CCC(C(=O)NCCCN2CCN(c3ccc(F)cc3)CC2)CC1` was inactive: 44.9%; that for `CCn1cc(C(=O)NCc2ccccc2)c(=O)c2cc(S(=O)(=O)N3CCc4ccccc4C3)ccc21` was inactive: -8.05%.
On to `CCOC(=O)C1CCCCN1S(=O)(=O)c1csc(C(N)=O)c1` (centres undefined), for which the activation is inactive: -9.79%.
As for `O=C(c1ccc2c(c1)CCCC2)N1CCN(c2nc3c(F)cccc3s2)CC1`, the figure is inactive: -12%; as for `COc1cc(C(c2c(C)[nH][nH]c2=O)c2c(C)[nH][nH]c2=O)ccc1OC(=O)c1cccc(C)c1`, inactive: -44%; as for `Cc1ccc(C2=CC(c3ccccc3F)n3c(nc4ccccc43)N2)cc1C` (centres undefined), inactive: 23.2%.
As for `COc1ccc(CC(=O)NCc2ccc3c(c2)CCN3C(=O)c2ccccc2)cc1OC`, the figure is inactive: -13.7%.
Turning to `COc1ccc(C2=NC(c3ccncc3)=Nc3ccc(Br)cc3N2)cc1`, the activation is inactive: -4.07%.
As for `CC(N)=O`, the figure is inactive: 0.222%.
With `CN(C)c1ccc(-n2c(CCC(=O)O)ccc2-c2ccccc2)cc1`, the activation is inactive: -16.1%.

The values are drawn from PubChem BioAssay AID1346428 (National Center for Advancing Translational Sciences (NCATS), 2018).
